In test [1] the target is T1, human transferrin receptor, recombinant extracellular domain (human, UniProt P02786).
T1 construct: also called hTfR; human TER
As to the kind of experiment: BLI (Octet RED96e), TfR loaded on Ni-NTA biosensor, analyte 80, 40, 20 nM, 1:1 binding model. How it is done:
(§1) The binding affinity of hBDNF-HSA-VHH and hBDNF-VHH-HSA for human or mouse TER was measured with Octet RED96e (ForteBio), a biomolecule interaction analysis system using biolayer interferometry. Human TER (hTER) used was a recombinant containing the amino acid sequence of the extracellular domain of hTER from the 89th cysteine residue from the N terminal side to the phenylalanine at the C terminal in the amino acid sequence of hTER represented by SEQ ID NO: 22. Mouse TER (mTER) used was, a recombinant of the extracellular domain of mTER corresponding to the extracellular domain of hTER.
(§2) Each of the hBDNF-HSA-VHH purified product and the hBDNF-VHH-HSA purified product obtained in Example 46 was serially diluted with HBS-P+buffer (Cytiva) containing 1% BSA (FUJIFILM Wako Pure Chemical Corporation) to prepare solutions of 80, 40, 20 nM. This was used as an analyte solution. Human TER and mouse TER were each diluted in HBS-P+buffer containing 1% BSA to prepare a 20 μg/mL solution. This was used as a ligand solution.
(§3) The sample solution and the ligand solution were added to predetermined wells of a black 96-well plate for Octet RED96e (Greiner) in 200 μL each. To the wells for baseline, dissociation and washing was added 200 μL of HBS-P+buffer containing 1% BSA. To the wells for regeneration was added 200 μL of 10 mM glycine buffer (pH 1.7). To the wells for activation was added 200 μL of 0.5 mM NiCl₂ solution. This 96-well plate and a Ni-NTA biosensor (ForteBio) were placed in place in an Octet RED96e instrument. After data acquisition by operating the Octet RED96e under the conditions shown in Table 9 below, the association rate constant (Kₒₙ) and dissociation rate constant (Koff) in the 1:1 binding model were calculated using the software attached to Octet RED96e, and the dissociation constant (Kd) was calculated. The measurement was carried out at a temperature of 25 to 30° C.
In general terms: Biolayer interferometry detects binding as a change in optical thickness at a sensor tip.

Test [2] deals with T2, mouse transferrin receptor, recombinant extracellular domain (mouse, UniProt Q62351).
T2 construct: extracellular domain; also called mTfR; mouse TER
T2 sequence (Q62351 89-763): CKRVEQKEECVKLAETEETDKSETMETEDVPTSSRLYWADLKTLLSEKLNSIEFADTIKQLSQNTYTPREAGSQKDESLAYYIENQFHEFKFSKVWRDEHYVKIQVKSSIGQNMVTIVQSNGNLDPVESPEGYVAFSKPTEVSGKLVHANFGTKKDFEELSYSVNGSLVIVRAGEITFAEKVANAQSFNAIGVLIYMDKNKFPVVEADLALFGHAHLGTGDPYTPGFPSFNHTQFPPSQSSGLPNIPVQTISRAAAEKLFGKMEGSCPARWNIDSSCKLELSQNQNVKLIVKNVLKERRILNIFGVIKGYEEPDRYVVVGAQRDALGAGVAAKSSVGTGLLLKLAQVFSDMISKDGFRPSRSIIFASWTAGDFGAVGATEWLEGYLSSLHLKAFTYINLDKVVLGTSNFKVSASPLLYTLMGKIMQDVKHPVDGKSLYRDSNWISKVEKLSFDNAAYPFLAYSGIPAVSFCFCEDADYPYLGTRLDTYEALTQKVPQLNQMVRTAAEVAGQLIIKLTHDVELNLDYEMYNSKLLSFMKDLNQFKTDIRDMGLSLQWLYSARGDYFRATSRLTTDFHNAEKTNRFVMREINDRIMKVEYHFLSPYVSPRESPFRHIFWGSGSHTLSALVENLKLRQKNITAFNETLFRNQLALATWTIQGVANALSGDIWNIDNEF
The description is as above. As to the method:
as §1, §2, §3

Our source for the Kd, koff and kon values is US20250333481A1 (JCR PHARMACEUTICALS, published 2025).

T1 sequence (P02786 89-760): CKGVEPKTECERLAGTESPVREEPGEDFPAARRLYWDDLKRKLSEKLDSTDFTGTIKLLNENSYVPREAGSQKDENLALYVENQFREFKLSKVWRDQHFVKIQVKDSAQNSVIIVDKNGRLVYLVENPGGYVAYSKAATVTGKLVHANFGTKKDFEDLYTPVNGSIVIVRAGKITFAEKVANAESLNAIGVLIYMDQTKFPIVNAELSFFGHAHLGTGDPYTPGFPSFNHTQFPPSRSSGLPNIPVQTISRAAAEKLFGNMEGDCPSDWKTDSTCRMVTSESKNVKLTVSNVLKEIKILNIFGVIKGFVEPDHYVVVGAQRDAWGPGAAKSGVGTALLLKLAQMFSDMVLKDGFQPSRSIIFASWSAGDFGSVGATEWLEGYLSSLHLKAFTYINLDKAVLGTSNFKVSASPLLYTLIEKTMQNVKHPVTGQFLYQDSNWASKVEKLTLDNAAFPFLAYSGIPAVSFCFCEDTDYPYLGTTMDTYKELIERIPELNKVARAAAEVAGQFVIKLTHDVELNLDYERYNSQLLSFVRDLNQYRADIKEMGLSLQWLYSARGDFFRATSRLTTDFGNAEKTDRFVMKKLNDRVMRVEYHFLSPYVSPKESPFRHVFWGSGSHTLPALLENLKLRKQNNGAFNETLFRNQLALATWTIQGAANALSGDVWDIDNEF

B1: hBDNF-HSA-VHH (other)
chain: HSDPARRGELSVCDSISEWVTAADKKTAVDMSGGTVTVLEKVPVSKGQLKQYFYETKCNPMGYTKEGCRGIDKRHWNSQCRTTQSYVRALTMDSKKRIGWRFIRIDTSCVCTLTIKRGRGSDAHKSEVAHRFKDLGEENFKALVLIAFAQYLQQCPFEDHVKLVNEVTEFAKTCVADESAENCDKSLHTLFGDKLCTVATLRETYGEMADCCAKQEPERNECFLQHKDDNPNLPRLVRPEVDVMCTAFHDNEETFLKKYLYEIARRHPYFYAPELLFFAKRYKAAFTECCQAADKAACLLPKLDELR[sequence of about 200 residues not given]NLIKQNCELFEQLGEYKFQNALLVRYTKKVPQVSTPTLVEVSRNLGKVGSKCCKHPEAKRMPCAEDCLSVFLNQLCVLHEKTPVSDRVTKCCTESLVNGRPCFSALEVDETYVPKEFNAETFTFHADICTLSEKERQIKKQTALVELVKHKPKATKEQLKAVMDDFAAFVEKCCKADDKETCFAEEGKKLVAASQAALGLGSGGSQVQLVESGGGLVQPGGSLRLSCAASGSIFDIYVMRWYRQAPGKGLEWVASIYDGGRNDYDNVVKGRFTISRDNSKNTLYLQMNSLRAEDTAVYFCNVLTYAGRPYWGQGTQVTVSS
notes: SE-HPLC: 99.0% monomer; also called hBDNF-HSA-VHH purified product
Usually Kd stands for a measure of binding affinity in units of concentration. Broadly, the koff is the rate constant with which the complex falls apart. The term kon denotes the second-order rate constant of association. Regarding B1, in test [1], the equilibrium dissociation constant (Kd) turned out to be 0.46 nM, the koff worked out at 0.000146 s⁻¹ and the kon is 318000 M⁻¹ s⁻¹. For the same molecule, in test [2], the Kd worked out at 2.04 nM, the koff was 0.000664 s⁻¹ and the kon came to 326000 M⁻¹ s⁻¹.

B2: hBDNF-VHH-HSA (other)
chain: HSDPARRGELSVCDSISEWVTAADKKTAVDMSGGTVTVLEKVPVSKGQLKQYFYETKCNPMGYTKEGCRGIDKRHWNSQCRTTQSYVRALTMDSKKRIGWRFIRIDTSCVCTLTIKRGRGSGGSQVQLVESGGGLVQPGGSLRLSCAASGSIFDIYVMRWYRQAPGKGLEWVASIYDGGRNDYDNVVKGRFTISRDNSKNTLYLQMNSLRAEDTAVYFCNVLTYAGRPYWGQGTQVTVSSGSDAHKSEVAHRFKDLGEENFKALVLIAFAQYLQQCPFEDHVKLVNEVTEFAKTCVADESAENCDKSLHTLFGDKLCTVATLRETYGEMADCCAKQEPERNECFLQHKDDNPNLPRLVRPEVDVMCTAFHDNEETFLKKYLYEIARRHPYFYAPELLFFAKRYKAAFTECCQAADKAACLLPKLDELR[sequence of about 200 residues not given]NLIKQNCELFEQLGEYKFQNALLVRYTKKVPQVSTPTLVEVSRNLGKVGSKCCKHPEAKRMPCAEDCLSVFLNQLCVLHEKTPVSDRVTKCCTESLVNGRPCFSALEVDETYVPKEFNAETFTFHADICTLSEKERQIKKQTALVELVKHKPKATKEQLKAVMDDFAAFVEKCCKADDKETCFAEEGKKLVAASQAALGL
notes: SE-HPLC: 98.1% monomer; also called hBDNF-VHH-HSA purified product
As to B2, in test [1], the dissociation constant Kd was 0.904 nM, the dissociation rate constant (koff) turned out to be 0.000213 s⁻¹ and the kon was 236000 M⁻¹ s⁻¹. Besides, in test [2], the Kd amounted to 2.82 nM, the koff was determined as 0.00053 s⁻¹ and the kon was determined as 188000 M⁻¹ s⁻¹.
